40 sequences from the supplement of paper PMC10338343 can be followed below.

± gives the standard deviation. The list shows a part of the results, in another mix than the full data.

The assay has as its system MIWI (PIWIL1) piRISC loaded with piRNA #1 (30 nt). The assay can be described thus: pre-steady-state target cleavage rate (min^-1); MIWI and MILI are mouse PIWI proteins and EfPiwi is from a freshwater sponge; tags in brackets are library labels; higher = faster piRNA-guided slicing of the target. The note with it: guide: piRNA #1 5'p-UGAGGUAGUAGGUUGUAUAGUAUCCAGAGG; auxiliary factor: 500 nM mouse GTSF1. In a few lines: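 Active affinity-purified piRISC (1 nM) loaded with one synthetic guide was mixed with a transcribed, DNA-blocked target RNA library (0.1 nM), with or without 500 nM GTSF1 partner protein, in HEPES–potassium acetate buffer at 33 °C for 0–8 or 0–960 min. Uncleaved targets were sequenced, normalised to depth and to weakly complementary targets, and pooled across three trials, with k3 capped at 0.0001 min^-1. The pre-steady-state cleavage rate was determined with a burst-and-steady-state fit.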
Consider “GCUCUGGAUACUAUACAACCUACAUGGAGA [g8:g29:cont:t1A]”, for which the “pre-steady-state target cleavage rate” value came to 0.0189 ± 0.0059.
In the case of CCUGUGGAUACUAUACAACCUACUACCUGA, the “pre-steady-state target cleavage rate” value came out at 0.787 ± 0.15.
The same measure for GGAGACCUAUGUAUACAACCUACCUACCUCA: 0.0235 ± 0.0043; for GGUCUGGAUACUAUACAUCCUACAACCUCA: 0.82 ± 0.066.
With GCUCUGGAUACUAUACAACCUAGUACCUGA, the “pre-steady-state target cleavage rate” value was 0.104 ± 0.02.
The same measure for GCUCUGGAUACUAUACAACCUACAACCUCA: 1.38 ± 0.087; for CCUCUGGAUACUAAUCAACCUACUACCUCA: 1.58 ± 0.097; for GGACUGGAUACUAUACUUCCUACUACCUCA: 0.145 ± 0.022.
In the case of GCUCUGGAUACUAUACAACCUACUACCUCCA, the “pre-steady-state target cleavage rate” value is 2.15 ± 0.14.
As to GGAGACCUAACUAUAUAACCUACUACCUCA, the “pre-steady-state target cleavage rate” value came out at 0.878 ± 0.074.
As for GGUCUGGAUACUAUAGAACCAACUACCUCA, the “pre-steady-state target cleavage rate” value stood at 0.0267 ± 0.0039.
Next, GGACUGGAUACUAUACAACCUACUACGUGA: 0.0214 ± 0.0061.
Next, GGAGAGGAUACUAUACAACCUACUACUUCA: 1.57 ± 0.1; GCUCUGGAUACUAUAGAAGCUACUACCUCA: 0.341 ± 0.033; GCACUGGAUUCUAUACAACCUACUACCUCA: 1.85 ± 0.096.
The same measure for GGACUGGAUACUAUACAACCUACUACGCUCA: 0.564 ± 0.072; for CCUCUGGAUACUAUACAACCUAGUACGUCA: 0.075 ± 0.021; for GCUCUGGAUACUAUACAACCUACUUACCUCA: 2.1 ± 0.13.
GGAGUGGAUUCUAUACAAGCUACUACCUCA: the “pre-steady-state target cleavage rate” value was 1.08 ± 0.06.
Consider GGACUGGAUACUAUACAACCUUCUACGUCA, for which the “pre-steady-state target cleavage rate” value amounted to 0.072 ± 0.015.
For the sequence GGAGACCUAACUAAACAACCUACUACCUGA, the “pre-steady-state target cleavage rate” value came out at 0.0122 ± 0.0077.
Next, GGUCUGGUUACUAAACAACCUACUACCUCA: 1.6 ± 0.11; GGAGAGGAUACUAUACAAGCUACUACCACA: 1.15 ± 0.056; GGAGUGGAUAUCUAUACAACCUACUACCUCA: 0.831 ± 0.053.
Next, GGUCUGGAAACUAUACAACCUACAACCUCA: 0.272 ± 0.044.
The same measure for GCUCUGGUAACUAUACAACCUACUACCUCA: 1.81 ± 0.12.
As to CCUCUGCAUACUAUACAACCUACUACCUGA, the “pre-steady-state target cleavage rate” value stood at 0.984 ± 0.11.
The same measure for GGAGACCUAUCUAUACAACCUACAUCCUCA: 0.0946 ± 0.011; for GGAGAGGAUACUAUACAACCUACUGCCUCA: 0.913 ± 0.066; for GGAGACCAUACUAUACAACCUAGAUCCUCA: 0.113 ± 0.021.
Next, GGUCUGGAUACAAUAGAACCUACUACCUCA: 1.07 ± 0.076; GGUCUGGAUACUAUACUUCCUACUACCUCA: 0.248 ± 0.029; GGAGUGCAUACUAUACAACCUACUUCCUCA: 0.0214 ± 0.0055.
In the case of GGAGUGGAUACUAUACAACCUACUAGCUCA, the “pre-steady-state target cleavage rate” value was 0.067 ± 0.013.
The same measure for GGUCUGCAAACUAUACAACCUACUACCUCA: 1.29 ± 0.093; for GGACUCCUUACUAUACAACCUACUACCUCA: 1.59 ± 0.12.
Next, GGUCUGGAUAGUAUACAACCUACUACCUCA: 0.761 ± 0.061; GGAGAGGAUGCUAUACAACCUACUACCUCA: 1.42 ± 0.087.
Next, GGUCUGGAUACUAUUCAAGCUACUACCUCA: 1.14 ± 0.059.
As to GGAGACCUUACUAUACAAGCUACUAGCUCA, the “pre-steady-state target cleavage rate” value was 0.318 ± 0.03.
